The other results are listed elsewhere or left out.
Experiments:
Experiment in all cases: glycan array binding signal (z-score within array); higher = stronger binding
Conditions in all cases: glycan notation: IUPAC condensed, linker removed
[1] = target: Fuc(a1-2)Gal(b1-4)GlcNAc(b1-3)Gal(b1-4)GlcNAc(b1-3)Gal(b1-4)GlcNAc
Method in brief: (§1)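 Negative Z-scores can be read as non-binding. The Z-score is calculated within each array and then averaged across arrays of one protein sequence at different concentrations or buffers and across linkers. Arrays, 3228 in all, were curated from the Consortium for Functional Glycomics database and kept only where the protein sequence was available.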

[2] = target: Fuc(a1-2)Gal(b1-4)GlcNAc(b1-3)GalNAc
Method in brief: as §1

[3] = target: Fuc(a1-2)Gal(b1-4)GlcNAc(b1-3)[Fuc(a1-2)Gal(b1-4)GlcNAc(b1-6)]GalNAc
Method in brief: as §1

[4] = target: Fuc(a1-2)Gal(b1-4)GlcNAc(b1-3)[Fuc(a1-3)[Gal(b1-4)]GlcNAc(b1-6)]Gal(b1-4)Glc
Method in brief: as §1

[5] = target: Fuc(a1-2)Gal(b1-4)GlcNAc(b1-6)GalNAc
Method in brief: as §1

[6] = target: Fuc(a1-2)Gal(b1-4)GlcNAc6S
Method in brief: as §1

[7] = target: Fuc(a1-2)Gal(b1-4)[Fuc(a1-3)]GlcNAc
Method in brief: as §1

[8] = target: Fuc(a1-2)Gal(b1-4)[Fuc(a1-3)]GlcNAc(b1-2)Man(a1-3)[Fuc(a1-2)Gal(b1-4)[Fuc(a1-3)]GlcNAc(b1-2)Man(a1-6)]Man(b1-4)GlcNAc(b1-4)[Fuc(a1-6)]GlcNAc
Method in brief: as §1

[9] = target: Fuc(a1-2)Gal(b1-4)[Fuc(a1-3)]GlcNAc(b1-2)[Fuc(a1-2)Gal(b1-4)[Fuc(a1-3)]GlcNAc(b1-4)]Man(a1-3)[Fuc(a1-2)Gal(b1-4)[Fuc(a1-3)]GlcNAc(b1-2)Man(a1-6)]Man(b1-4)GlcNAc(b1-4)GlcNAc
Method in brief: as §1

[10] = target: Fuc(a1-2)Gal(b1-4)[Fuc(a1-3)]GlcNAc(b1-3)Gal(b1-4)[Fuc(a1-3)]GlcNAc
Method in brief: as §1

[11] = target: Fuc(a1-2)Gal(b1-4)[Fuc(a1-3)]GlcNAc(b1-3)Gal(b1-4)[Fuc(a1-3)]GlcNAc(b1-3)Gal(b1-4)[Fuc(a1-3)]GlcNAc
Method in brief: as §1

[12] = target: Fuc(a1-2)Gal(b1-4)[Fuc(a1-3)]GlcNAc(b1-3)GalNAc
Method in brief: as §1

[13] = target: Fuc(a1-2)Gal(b1-4)[Fuc(a1-3)]GlcNAc(b1-3)[Neu5Ac(a2-6)Gal(b1-4)GlcNAc(b1-6)]Gal(b1-4)Glc
Method in brief: as §1

[14] = target: Fuc(a1-2)Gal3S(b1-4)GlcNAc
Method in brief: as §1

[15] = target: Fuc(a1-2)Gal6S(b1-3)GlcNAc
Method in brief: as §1

[16] = target: Fuc(a1-2)Gal6S(b1-3)GlcNAc6S
Method in brief: as §1

[17] = target: Fuc(a1-2)Gal6S(b1-4)Glc
Method in brief: as §1

[18] = target: Fuc(a1-2)Gal6S(b1-4)Glc6S
Method in brief: as §1

[19] = target: Fuc(a1-2)[Gal(a1-3)]Gal
Method in brief: as §1

[20] = target: Fuc(a1-2)[Gal(a1-3)]Gal(b1-3)GalNAc
Method in brief: as §1

[21] = target: Fuc(a1-2)[Gal(a1-3)]Gal(b1-3)GalNAc(b1-3)Gal(a1-4)Gal(b1-4)Glc
Method in brief: as §1

[22] = target: Fuc(a1-2)[Gal(a1-3)]Gal(b1-3)GlcNAc
Method in brief: as §1

[23] = target: Fuc(a1-2)[Gal(a1-3)]Gal(b1-3)GlcNAc(b1-2)Man(a1-3)[Fuc(a1-2)[Gal(a1-3)]Gal(b1-3)GlcNAc(b1-2)Man(a1-6)]Man(b1-4)GlcNAc(b1-4)GlcNAc
Method in brief: as §1

[24] = target: Fuc(a1-2)[Gal(a1-3)]Gal(b1-3)GlcNAc(b1-2)Man(a1-3)[Fuc(a1-2)[Gal(a1-3)]Gal(b1-3)GlcNAc(b1-2)Man(a1-6)]Man(b1-4)GlcNAc(b1-4)[Fuc(a1-6)]GlcNAc
Method in brief: as §1

[25] = target: Fuc(a1-2)[Gal(a1-3)]Gal(b1-3)GlcNAc(b1-3)GalNAc
Method in brief: as §1

[26] = target: Fuc(a1-2)[Gal(a1-3)]Gal(b1-3)GlcNAc(b1-6)GalNAc
Method in brief: as §1

[27] = target: Fuc(a1-2)[Gal(a1-3)]Gal(b1-4)Glc
Method in brief: as §1

[28] = target: Fuc(a1-2)[Gal(a1-3)]Gal(b1-4)GlcNAc
Method in brief: as §1

[29] = target: Fuc(a1-2)[Gal(a1-3)]Gal(b1-4)GlcNAc(b1-2)Man
Method in brief: as §1

[30] = target: Fuc(a1-2)[Gal(a1-3)]Gal(b1-4)GlcNAc(b1-2)Man(a1-3)[Fuc(a1-2)[Gal(a1-3)]Gal(b1-4)GlcNAc(b1-2)Man(a1-6)]Man(b1-4)GlcNAc(b1-4)GlcNAc
Method in brief: as §1

[31] = target: Fuc(a1-2)[Gal(a1-3)]Gal(b1-4)GlcNAc(b1-2)Man(a1-3)[Fuc(a1-2)[Gal(a1-3)]Gal(b1-4)GlcNAc(b1-2)Man(a1-6)]Man(b1-4)GlcNAc(b1-4)[Fuc(a1-6)]GlcNAc
Method in brief: as §1

[32] = target: Fuc(a1-2)[Gal(a1-3)]Gal(b1-4)GlcNAc(b1-3)GalNAc
Method in brief: as §1

[33] = target: Fuc(a1-2)[Gal(a1-3)]Gal(b1-4)GlcNAc(b1-3)[Fuc(a1-2)[Gal(a1-3)]Gal(b1-4)GlcNAc(b1-6)]GalNAc
Method in brief: as §1

[34] = target: Fuc(a1-2)[Gal(a1-3)]Gal(b1-4)GlcNAc(b1-6)GalNAc
Method in brief: as §1

[35] = target: Fuc(a1-2)[Gal(a1-3)]Gal(b1-4)[Fuc(a1-3)]Glc
Method in brief: as §1

[36] = target: Fuc(a1-2)[Gal(a1-3)]Gal(b1-4)[Fuc(a1-3)]GlcNAc
Method in brief: as §1

[37] = target: Fuc(a1-2)[Gal(a1-3)]Gal(b1-4)[Fuc(a1-3)]GlcNAc(b1-3)GalNAc
Method in brief: as §1

B1: B1257 (Bifidobacterium sp) (protein)
chain: MKKSIRLVAAIAALAMTAGISACGSSTNGNQAKSDVTAQDVETALTDTSKNVELTVWAYSAKQMEPTVKAFEKKYPHIKINFVNTGAAGDHFTKFQNVVQAQKDIPDVVQMGANKFQQFAVSGALLNFANDSIEKAWSKLYTKTAWAQVHYAGGLYGAPQDATPLANYVRKDILDEHNLQVPESWEDIYNEGIKLHKEDSNKYMGILGSDISFFTNLYRSVGARLWKVNSVDDVELTMNSGKAKEFTEFLQKCLKDGVLEGGTVFTDEFNRSINDGRYATFINENWMGNTYKEQNPSLKGKMVVAAPPSWKGQPYQSSSVGSMMSVSAACPKEKQAAALAFINWLDSDKDAIQSWQDTNNGNFFMAASVYQDDENQRNKKETDGYYANDDVNAVYFDSMDKVNTDWEYLPFMSQVEVVFNDVIVPQMNENGDLVGAMAKAQQELKTYAKDNGFKVTTDAD
glycan array binding signal (z-score) [1]: 0.071
glycan array binding signal (z-score) [2]: 0.181
glycan array binding signal (z-score) [3]: -0.107
glycan array binding signal (z-score) [4]: -0.058
glycan array binding signal (z-score) [5]: 0.043
glycan array binding signal (z-score) [6]: -0.173
glycan array binding signal (z-score) [7]: -0.084
glycan array binding signal (z-score) [8]: -0.051
glycan array binding signal (z-score) [9]: 0.025
glycan array binding signal (z-score) [10]: -0.093
glycan array binding signal (z-score) [11]: 0.052
glycan array binding signal (z-score) [12]: 0.086
glycan array binding signal (z-score) [13]: -0.102
glycan array binding signal (z-score) [14]: -0.141
glycan array binding signal (z-score) [15]: -0.148
glycan array binding signal (z-score) [16]: 0.073
glycan array binding signal (z-score) [17]: 0.068
glycan array binding signal (z-score) [18]: -0.07
glycan array binding signal (z-score) [19]: -0.116
glycan array binding signal (z-score) [20]: 0.034
glycan array binding signal (z-score) [21]: -0.091
glycan array binding signal (z-score) [22]: -0.109
glycan array binding signal (z-score) [23]: -0.062
glycan array binding signal (z-score) [24]: -0.149
glycan array binding signal (z-score) [25]: -0.1
glycan array binding signal (z-score) [26]: 0.048
glycan array binding signal (z-score) [27]: -0.142
glycan array binding signal (z-score) [28]: -0.093
glycan array binding signal (z-score) [29]: 0.231
glycan array binding signal (z-score) [30]: -0.014
glycan array binding signal (z-score) [31]: -0.043
glycan array binding signal (z-score) [32]: -0.026
glycan array binding signal (z-score) [33]: 0.214
glycan array binding signal (z-score) [34]: -0.096
glycan array binding signal (z-score) [35]: -0.192
glycan array binding signal (z-score) [36]: -0.069
glycan array binding signal (z-score) [37]: 0.083
